From the RNAGym collection of RNA variant scans (doi:10.1101/gad.245936.114)
Variants at the floor of the assay are shown more often than the library holds them.

B1: tRNA (parent)
chain: CUCUCGGUAGCCAAGUUGGUUUAAGGCGCAAGACUUUAAUUUAUCACUACGAAAUCUUGAGAUCGGGCGUUCGACUCGCCCCCGGGAGAUUUUUUCCUCGAGCAA

Variants of: B1
Test: nonsense suppression (GFP-seq) (ratio to wild type); higher = more function; SUP4oc tRNA, yeast GFP reporter sort-seq
Procedure, shortened: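 Nonsense suppression (GFPSEQ) is the median GFP/RFP ratio of each sorting bin, weighted by the variant's estimated share of cells in that bin and expressed relative to the unmutated parent tRNA. Yeast strains carried genome-integrated variants of an ochre-suppressor tRNA from a library with ~3% random mutations, plus a galactose-driven GFP ochre reporter and RFP, and were grown in raffinose/galactose medium containing 80 mg/L adenine. Cells were sorted into GFP/RFP bins, each bin was Illumina-sequenced (phred ≥30), and variants were kept only with ≥100 reads and ≥30 cells.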

| Variant | nonsense suppression |
| --- | --- |
| CUCUCGGUAGCCACGUUGGUUUAAGGCGCGAGACUUUAAUUUAUCACUACGAAAUCUUGAAAUCGGACGUUCGACUCGCCCCCGGGAGAUUUUUUCCUCGAGCAA | ≤ 0.026 |
| CUCUCGGUAGCCACGUUGGUUUAAGGCGCGAGUCGUUAAUUUAUCACUACGAAAUCUUGAGAUCGGGCGUUCGACUCGCCCCCGGGAGAUUUUUUCCUCGAGCAA | ≤ 0.026 |
| CUCUCGGUAGCCACGUUGGUUUAAGGCGCAAGACUUUAAUUUAUCACUACGAAAUGUUGAGAUCGGGCGUUCGACUCGCCCCCGGGAGAUUUUUUCCUCGAGCAA | ≤ 0.026 |
| CUCUCGGUAGCCACGUUGGUUUAAGGAGCAAGACUUUAAUUUAUCACUACGAAAUCUUGAGAUCGGGCGUUCGACUCGCCCCCGGGAGAUUUUUUCCUCGAGCAA | ≤ 0.026 |
| CUCUCGGUAGCCACGUUGGUUUAAGGCGCAAGACUUUAAUUUAUCACUACGAAAUCUUGCGAUCGGACGUUCGACUCGCCCCCGGGAGAUUUUUUCCUCGAGCAA | ≤ 0.026 |
| CUCUCGGUAGCCACGUUGAUUUAAGGCCCAAGACUUUAAUUUAUCACUACGAAAUCUUGAUAUCGAGCGUUCGACUCGCCCCCGGGAAAUUUUUUCCUCGAGCAA | ≤ 0.026 |
| CUCUCGGUAGCCUAGUUGGUUUAAGGCGCAAGACUUUAAUUUAUCACUACGAAACCUUGAGAUCGGGCGUUCGACUCGCCCCCGGGCGAUUUUUUCCUCGAGCAA | ≤ 0.026 |
| CUCUCGGUAGCCUAGUUGGUUUAAGGCGCAAGACUUUAAUUUAUCACUACGAAAUCUUGAGAUCGGGCGAUCGACUCGCCUCCGGGAGAUUUUUUCCUCGAGCAA | ≤ 0.026 |
| CUCUCGGUAGCCACGUUGGUUUAAGGUGCAAGACUUUAAUUUAUCACUACGAAAUCUUGAGAUCGGGCGUUCGACUGGCCCCCGGGAGAUUUUUUCCUCGAGCAA | ≤ 0.026 |
| CUCUCGGUAGCCACUUUGGUUUAAGGCGCAAGGCUUUAAUUUAUCACUACGAAAUCUUGAGAUCGGGCGUUCGACUCGCCCCCGGGAGAUUUUUUCCUCGAGCAA | ≤ 0.026 |
| CUCUCGGUAGCCACGUUGGUUUAAGGCGGGAGACUUUAAUUUAUCACUACGAAAUCUUGAGAUCGGGCGUUCGACUCGCCCCCGGGAGAUUUUUUCCUCGAGCAA | ≤ 0.026 |
| CUCUCGGUAGCCUAGUUGGUUUAAGGCGCAAGACCUUAAUUUAUCACUACGAAAUCUUGAACUCGGGCGUUCGACUCGCCCCCGGGAGAUUUUUUCCUCGAGCAA | ≤ 0.026 |
| CUCUCGGUAGCCACGUUGGUUUAAGGCGCAAGGCUUUAAUUUAUCACUACGAAAUCUUGAGAUCGGGCGUUCGACUCGCCCCCGGGAGAUUUUUUCCUCGAGCAA | ≤ 0.026 |
| CUCUCGGUAGCCUAGUUGGUUUAAGGCGCAAGACUUUAAUUUAUCACUACGAAAUCUGGAGAUCGGGCGUUCGUGUCGCCCCCGGGAGAUUUUUUCCUCGAGCAA | ≤ 0.026 |
| CUCUCGGUAGCCACGUUGGUUUAAGGCGCAAGACUUUAAUUUAUCACUACGAAAUGUUGAGAUCGGGCGUUGGACUCGCCCCCGGAAGAUUUUUUCCUCGAGCAA | ≤ 0.026 |
| CUCUCGGUAGCCUAGUUGGUUUAAGGCGCAAGACUUUAAUUUAUCACUACGAAAUCUUGAGAUCGGGCGUUCGACUCGCCCCCGGCAGAUUUUUUCCUCGAGCAA | ≤ 0.026 |
| CUCUCGGUAGCCUAGUUGGUUUAAGGCGCAAGACCUUAAUUUAUCACUACGAAAUCCCGAGAUCGGGCGUUCGACUCGCCCCCAGGAGAUUUUUUCCUCGAGCAA | ≤ 0.026 |
| CUCUCGGUAGCCACGUUGGUUUAAGGCGCAAGGCUUUAAUUUAUCACUACGAAAUCGUGAGAUCGGGCGUUCGACUCGCCCCCGGGAGAUUUUUUCCUCGAGCAA | ≤ 0.026 |
| CUCUCGGUAGCCUAGUUGGUUUAAGGCGCAAGACUUUAAUUUAUCACUACGAAAUCUUGAGAUCGGGCAUUCGACUCGCCCCCGGGAGAUUUUUUCCUCGAGCAA | 0.072 |
| CUCUCGGUAGCCACGUUGGUUUAAGGCGCAAGACUUUAAUUUAUCACUACGAAAUCUUGAGAUCGGGAGUUCGACUCGCCCCCGGGUGAUUUUUUCCUCGAGCAA | ≤ 0.026 |
| CUCUCGGUAGCCUAGUUGGAUUAAGGCGCAAGACUUUAAUUUAUCACUACGAAAUCUUGAGAUCGGGCGUUCGACUCGCCCCCGGGAGAUUUUUUCCUCGAGCAA | 0.189 |
| CUCUCGGUAGCCACGUUGGUUUAAGGCGCAAGGCUUUAAUUUAUCACUACGAAAUCUUUCGAUCGGGCGUUCGACUCGCCCCCGGGAGAUUUUUUCCUCGAGCAA | ≤ 0.026 |
| CUCUCGGUAGCCACGUUGGUUUAAGGCGCAAGACUUUAAUUUAUCACUACGAAAUCUUGAGAUAGGGCGUUCGACUCGCCCCCGGGGGAUUUUUUCCUCGAGCAA | ≤ 0.026 |
| CUCUCGGUAGCCACGUUGGUUUAAGGCGCACGACUUUAAUUUAUCACUACGAAAUCUCGAGAUCGGGCGUUAGACCUGCCCCCGGGAGAUUUUUUCCUCGAGCAA | ≤ 0.026 |
| CUCUCGGUAGCCACGUUGGUUUAAGGCGGAAUACUUUAAUUUAUCACUACGAAAUCUUGAGAUCGGGCGUUCGACUCGCCCCCAGGAGAUUUUUUCCUCGAGCAA | ≤ 0.026 |
| CUCUCGGUAGCCACGUUGGUUUAAGGCGCAAGACUUUAAUUUAUCACUACGAAAUCUUGAGAUCGGGCGUUCGACUCGCCGCCGGGAGAUUUUUUCCUCGAGCAA | ≤ 0.026 |
| CUCUCGGUAGCCUAGUUGGUUUAAGGCGCAAGACUUUAAUUUAUCACUACGAAACCUUGAGAUCGGGCGUUCGACUCGUCCCCGGGAGAUUUUUUCCUCGAGCAA | ≤ 0.026 |
